Where a chain is given by its changes, count along the chain named. The list shows a part of the results.
T1: RBFOX1 RRM RbFoxmut (Fox-RRM*) (Homo sapiens, UniProt Q9NWB1 109-208, R118D;E147R;N151S;E152T)
T1 sequence: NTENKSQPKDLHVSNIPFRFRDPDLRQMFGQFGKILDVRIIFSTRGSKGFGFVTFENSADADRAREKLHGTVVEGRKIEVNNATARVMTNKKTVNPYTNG

B1: UGUCCCG (DNA:RNA)
RNA: GGGAGACCGGAAUUCAGAUUGUCCUGUCCCGUUAAAUCCCGUCGUAGCCACCA
DNA 1: CAATCTGAATTCCGGTCTCCC
DNA 2: TGGTGGCTACGACGGGATT
B2: GUUUUCU (DNA:RNA)
RNA: B1 RNA with U25G, G26U, C28U, C29U, G31U
DNA 1: CAATCTGAATTCCGGTCTCCC
DNA 2: TGGTGGCTACGACGGGATT
B3: CCACUAC (DNA:RNA)
RNA: B1 RNA with U25C, G26C, U27A, C29U, C30A, G31C
DNA 1: CAATCTGAATTCCGGTCTCCC
DNA 2: TGGTGGCTACGACGGGATT
B4: UAUGACU (DNA:RNA)
RNA: B1 RNA with G26A, C28G, C29A, G31U
DNA 1: CAATCTGAATTCCGGTCTCCC
DNA 2: TGGTGGCTACGACGGGATT
B5: ACUAUUC (DNA:RNA)
RNA: B1 RNA with U25A, G26C, C28A, C29U, C30U, G31C
DNA 1: CAATCTGAATTCCGGTCTCCC
DNA 2: TGGTGGCTACGACGGGATT
B6: GACCUUC (DNA:RNA)
RNA: B1 RNA with U25G, G26A, U27C, C29U, C30U, G31C
DNA 1: CAATCTGAATTCCGGTCTCCC
DNA 2: TGGTGGCTACGACGGGATT
B7: UAUCGCU (DNA:RNA)
RNA: B1 RNA with G26A, C29G, G31U
DNA 1: CAATCTGAATTCCGGTCTCCC
DNA 2: TGGTGGCTACGACGGGATT
B8: ACUCACA (DNA:RNA)
RNA: B1 RNA with U25A, G26C, C29A, G31A
DNA 1: CAATCTGAATTCCGGTCTCCC
DNA 2: TGGTGGCTACGACGGGATT
B9: GUGGUUA (DNA:RNA)
RNA: GGGAGACCGGAAUUCAGAUUGUCCGUGGUUAUUAAAUCCCGUCGUAGCCACCA
DNA 1: CAATCTGAATTCCGGTCTCCC
DNA 2: TGGTGGCTACGACGGGATT
B10: AAUGUAU (DNA:RNA)
RNA: B9 RNA with G25A, U26A, G27U, U30A, A31U
DNA 1: CAATCTGAATTCCGGTCTCCC
DNA 2: TGGTGGCTACGACGGGATT
B11: AUCUACU (DNA:RNA)
RNA: B9 RNA with G25A, G27C, G28U, U29A, U30C, A31U
DNA 1: CAATCTGAATTCCGGTCTCCC
DNA 2: TGGTGGCTACGACGGGATT
B12: CAGUUGU (DNA:RNA)
RNA: B9 RNA with G25C, U26A, G28U, U30G, A31U
DNA 1: CAATCTGAATTCCGGTCTCCC
DNA 2: TGGTGGCTACGACGGGATT
B13: CCGUUGU (DNA:RNA)
RNA: B9 RNA with G25C, U26C, G28U, U30G, A31U
DNA 1: CAATCTGAATTCCGGTCTCCC
DNA 2: TGGTGGCTACGACGGGATT
B14: AUGCCUU (DNA:RNA)
RNA: B9 RNA with G25A, G28C, U29C, A31U
DNA 1: CAATCTGAATTCCGGTCTCCC
DNA 2: TGGTGGCTACGACGGGATT
B15: GUAUAUC (DNA:RNA)
RNA: B9 RNA with G27A, G28U, U29A, A31C
DNA 1: CAATCTGAATTCCGGTCTCCC
DNA 2: TGGTGGCTACGACGGGATT
B16: UUUCUCA (DNA:RNA)
RNA: B1 RNA with G26U, C29U, G31A
DNA 1: CAATCTGAATTCCGGTCTCCC
DNA 2: TGGTGGCTACGACGGGATT
B17: CUAUGAU (DNA:RNA)
RNA: B9 RNA with G25C, G27A, G28U, U29G, U30A, A31U
DNA 1: CAATCTGAATTCCGGTCTCCC
DNA 2: TGGTGGCTACGACGGGATT
B18: UUAUUAA (DNA:RNA)
RNA: B9 RNA with G25U, G27A, G28U, U30A
DNA 1: CAATCTGAATTCCGGTCTCCC
DNA 2: TGGTGGCTACGACGGGATT
B19: CAGCGGU (DNA:RNA)
RNA: B9 RNA with G25C, U26A, G28C, U29G, U30G, A31U
DNA 1: CAATCTGAATTCCGGTCTCCC
DNA 2: TGGTGGCTACGACGGGATT
B20: GCCAAAC (DNA:RNA)
RNA: B9 RNA with U26C, G27C, G28A, U29A, U30A, A31C
DNA 1: CAATCTGAATTCCGGTCTCCC
DNA 2: TGGTGGCTACGACGGGATT
B21: AGUACUG (DNA:RNA)
RNA: B1 RNA with U25A, C28A, C30U
DNA 1: CAATCTGAATTCCGGTCTCCC
DNA 2: TGGTGGCTACGACGGGATT
B22: GGUCGCU (DNA:RNA)
RNA: B1 RNA with U25G, C29G, G31U
DNA 1: CAATCTGAATTCCGGTCTCCC
DNA 2: TGGTGGCTACGACGGGATT
B23: AAACAGG (DNA:RNA)
RNA: B1 RNA with U25A, G26A, U27A, C29A, C30G
DNA 1: CAATCTGAATTCCGGTCTCCC
DNA 2: TGGTGGCTACGACGGGATT
B24: AAUGACG (DNA:RNA)
RNA: B1 RNA with U25A, G26A, C28G, C29A
DNA 1: CAATCTGAATTCCGGTCTCCC
DNA 2: TGGTGGCTACGACGGGATT
B25: CUGAUCC (DNA:RNA)
RNA: B9 RNA with G25C, G28A, U30C, A31C
DNA 1: CAATCTGAATTCCGGTCTCCC
DNA 2: TGGTGGCTACGACGGGATT
B26: ACACCAC (DNA:RNA)
RNA: B1 RNA with U25A, G26C, U27A, C30A, G31C
DNA 1: CAATCTGAATTCCGGTCTCCC
DNA 2: TGGTGGCTACGACGGGATT
B27: UGCAGGC (DNA:RNA)
RNA: B1 RNA with U27C, C28A, C29G, C30G, G31C
DNA 1: CAATCTGAATTCCGGTCTCCC
DNA 2: TGGTGGCTACGACGGGATT
B28: GUACGGG (DNA:RNA)
RNA: B9 RNA with G27A, G28C, U29G, U30G, A31G
DNA 1: CAATCTGAATTCCGGTCTCCC
DNA 2: TGGTGGCTACGACGGGATT
B29: GGACCAA (DNA:RNA)
RNA: B1 RNA with U25G, U27A, C30A, G31A
DNA 1: CAATCTGAATTCCGGTCTCCC
DNA 2: TGGTGGCTACGACGGGATT
B30: CACGUGG (DNA:RNA)
RNA: B9 RNA with G25C, U26A, G27C, U30G, A31G
DNA 1: CAATCTGAATTCCGGTCTCCC
DNA 2: TGGTGGCTACGACGGGATT
B31: GACGUGA (DNA:RNA)
RNA: B9 RNA with U26A, G27C, U30G
DNA 1: CAATCTGAATTCCGGTCTCCC
DNA 2: TGGTGGCTACGACGGGATT

target: T1, RBFOX1 RRM RbFoxmut (Fox-RRM*); experiment: EMSA; HiTS-Eq, 1 nM pool, 10 min; buffer printed only for the single-RNA assays: 10 mM Tris pH 7.5, 150 mM NaCl, 3.4 mM EDTA, 0.001% NP-40, 30 C; details: tags: His6 N-terminal (pET28a); label: 5' 32P
Procedure, shortened: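 These values rest on relative association constants, computed from read-count changes of each RNA species versus the control reaction and normalised to the cognate motif. Reads came from free RNA recovered by 8% native PAGE after purified RbFox RRM (wild type or mutant) at increasing concentrations was equilibrated for 10 min in 50 µL with 1 nM of a 5′-radiolabelled pool with 7 randomized nucleotides and DNA-annealed flanks.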

Binder	binding signal
B1	0.096 KA relative to UGCAUGU
B2	0.0724 KA relative to UGCAUGU
B3	0.0888 KA relative to UGCAUGU
B4	0.0521 KA relative to UGCAUGU
B5	0.0835 KA relative to UGCAUGU
B6	0.0642 KA relative to UGCAUGU
B7	0.066 KA relative to UGCAUGU
B8	0.109 KA relative to UGCAUGU
B9	0.148 KA relative to UGCAUGU
B10	0.137 KA relative to UGCAUGU
B11	0.114 KA relative to UGCAUGU
B12	0.151 KA relative to UGCAUGU
B13	0.132 KA relative to UGCAUGU
B14	0.112 KA relative to UGCAUGU
B15	0.114 KA relative to UGCAUGU
B16	0.097 KA relative to UGCAUGU

Binder	binding signal
B17	0.0688 KA relative to UGCAUGU
B18	0.0751 KA relative to UGCAUGU
B19	0.125 KA relative to UGCAUGU
B20	0.0488 KA relative to UGCAUGU
B21	0.0956 KA relative to UGCAUGU
B22	0.0798 KA relative to UGCAUGU
B23	0.0875 KA relative to UGCAUGU
B24	0.0918 KA relative to UGCAUGU
B25	0.0634 KA relative to UGCAUGU
B26	0.0724 KA relative to UGCAUGU
B27	0.122 KA relative to UGCAUGU
B28	0.0892 KA relative to UGCAUGU
B29	0.0723 KA relative to UGCAUGU
B30	0.0601 KA relative to UGCAUGU
B31	0.0969 KA relative to UGCAUGU
